Data reported in the RNAGym collection of RNA variant scans (doi:10.7554/elife.90254).
The source gives no read counts; variants with many changes may rest on few reads.

B1: LINE1-mini (parent)
chain: GGCAGAGCUCAACACAGCGUGGCAAAGUGGCUGUGGCUAGACUGCC

Variants of: B1
Experiment: self-cleavage, relative activity (ratio to wild type); higher = more cleavage; in vitro, sequencing; the parent is a self-cleaving ribozyme
For C3G A4U G35C G40U U43G, the self-cleavage was 0.08. C10U C42G C46A gave a self-cleavage of 0.02. Variant G1U C23G G29C U38A has a self-cleavage of 0.04. For C3G A6G G7U A25C, the self-cleavage was 0.06. In the case of U9C C13G A41U, the self-cleavage is reported as 0.01. For G2U U28C G29U G30A C46A, the self-cleavage was 0.03. With G7C A39G C42U the self-cleavage was 0.01. G1U A6U C42G C46U gave a self-cleavage of 0.1. G2A U20A G21U showed a self-cleavage of 0.36. In the case of C3A C31G U34A, the self-cleavage is reported as 0.05. G1C C3U A14G G27U U34A C37A gave a self-cleavage of 0.05. In the case of C10U A26U G36A, the self-cleavage is reported as 0.04. Work on C10G G19C G44A yielded a self-cleavage of 0.04. Variant C8U C10A C46A has a self-cleavage of 0.03. Variant G5U C31U C42U G44A has a self-cleavage of 0.02. Variant G1U G21C G35U has a self-cleavage of 0.03. G21U U32A G36A showed a self-cleavage of 0.21. Variant G5A G19C U34C has a self-cleavage of 0.07. In the case of A11U C15U C42U U43G, the self-cleavage is reported as 0.04. G17U A25C G27C U43C showed a self-cleavage of 0.04. With G7A C10U U38C the self-cleavage was 0.01. In the case of G2U C3A A11G, the self-cleavage is reported as 0.04. U20G A25U G35U G36U showed a self-cleavage of 0.06. A12U G29A U38G showed a self-cleavage of 0.02. With A14U A24G U43A the self-cleavage was 0.17. Variant G17U C18A G19C G27U U43G has a self-cleavage of 0.17. G22A G29A G40U showed a self-cleavage of 0.12. A6U G7C U34A U38G showed a self-cleavage of 0.01. C13G U20A U34G G40U showed a self-cleavage of 0.03. Work on G7C G33A G36U U38C yielded a self-cleavage of 0.07. Work on C13G G21U A24G yielded a self-cleavage of 0.08. Variant A4C C23A A24U G36A G40U has a self-cleavage of 0.5. In the case of C3U G33C U34G A41U, the self-cleavage is reported as 0.05. C10A A12G U28G A39G gave a self-cleavage of 0.01. For U9G G19A U20A C23A U28A C37G, the self-cleavage was 0.01. Work on C13U C31G U38A yielded a self-cleavage of 0.03. For G17U G19C A26C C37U, the self-cleavage was 0.05. In the case of A11U A12G G27A G36U A41U, the self-cleavage is reported as 0.01. With C18U G19A U38G G40C the self-cleavage was 0.02. In the case of C3G G5C U9G C15A U38G, the self-cleavage is reported as 0.04. Variant G5A G19U G36A has a self-cleavage of 0.22. Work on G21U G22U G27C U34A C42A yielded a self-cleavage of 0.56. Variant A11G A16U G27A U28A has a self-cleavage of 0.08. For C15U C18G U28C G33A C45A, the self-cleavage was 0.01. Work on U38G U43A C46U yielded a self-cleavage of 0. For G1U C3U A26U, the self-cleavage was 0.88. In the case of A4G G19U U28C G30U G33A C42G, the self-cleavage is reported as 0.01. Variant A4C A14U C23G A26G has a self-cleavage of 0.05. G21A G22U G30A U32G C37A G44A C46U gave a self-cleavage of 0.01. G1A C18G U32C A39G gave a self-cleavage of 0.04. Variant G2C C3U G40U has a self-cleavage of 0.24. With U9G G36A A41C the self-cleavage was 0.03. With G2A G27U G35U the self-cleavage was 0.25. For G5A C10A C18G U38A A39C, the self-cleavage was 0.03. For C10U A25C A41G, the self-cleavage was 0.01. A16G G29C G33U U38C C45G gave a self-cleavage of 0.01. For C10U C18U G19U G30U G44C, the self-cleavage was 0.08. G5C C8U C15U U20A C37A U43A showed a self-cleavage of 0.03. With C8A C15U C31U C42G the self-cleavage was 0.11. G19A G21C C23A A25C U43A gave a self-cleavage of 0.04. In the case of G30U A41U C42A, the self-cleavage is reported as 0.02. Work on G1C U34A G44U yielded a self-cleavage of 0. For C23U C37A A41G, the self-cleavage was 0.14. Work on C3A G7A U34G yielded a self-cleavage of 0.29. In the case of G40A C42A G44C, the self-cleavage is reported as 0. Work on C15G G30U G35C yielded a self-cleavage of 0.03. With C3U U9G G29U G30A C37U C42G the self-cleavage was 0.43. A11C G17U G30A G44A C45A gave a self-cleavage of 0.01. G19U A24U A26G G36C C42U showed a self-cleavage of 0.03. Variant G1A G22C A25G U32A has a self-cleavage of 0.12. With A12C G17C G27U G29U the self-cleavage was 0.03. Work on G5U U9G A11U G17A yielded a self-cleavage of 0.01. Variant G30A U32G C42G C46A has a self-cleavage of 0.05. Work on G7C C18A C23U G35U U38C yielded a self-cleavage of 0.01. C10A A24G U28A C31U G44A gave a self-cleavage of 0.03. Work on C18A A24U C46U yielded a self-cleavage of 0.15. With A26C G29U U38C G44U the self-cleavage was 0.02. A6G A12U G27C showed a self-cleavage of 0.03. In the case of G2A C3G C18U U28G, the self-cleavage is reported as 0.16. With C3G G44U C46G the self-cleavage was 0.17. Variant U32A G35A A39G has a self-cleavage of 0.03. Work on G7A U28A U34A U38G yielded a self-cleavage of 0.08. In the case of G1U C3U G21C, the self-cleavage is reported as 0.12. Work on A4G U9G C46G yielded a self-cleavage of 0.24. A11C A14C A26U G27U U28C G35A G36C C46U gave a self-cleavage of 0. Work on G1C A14C G21A G33U G36A C42G yielded a self-cleavage of 0.01. A4U C10G G17C C18A A26C U28C C31G G40A gave a self-cleavage of 0.01. A11C G21C C31A G33A G40C C45A showed a self-cleavage of 0.01. C3U A25C G36U C37A G44U gave a self-cleavage of 0.21. Variant C13G G29U C42A has a self-cleavage of 0.11. In the case of G5U A12C G35C U38A A39C, the self-cleavage is reported as 0.05. G2A A6C A26G showed a self-cleavage of 0.16. G1C U9A A39C showed a self-cleavage of 0.02. With G7U C10A G36U the self-cleavage was 0.05. In the case of G17U C18U G44A, the self-cleavage is reported as 0.01. Work on G1A U20C C45G yielded a self-cleavage of 0.09. A4C G36A U38C gave a self-cleavage of 0.02. U9A A14C A16U G30C C31U showed a self-cleavage of 0.04. Work on C3U A4U A26U yielded a self-cleavage of 0.24. C3G C8G C15U showed a self-cleavage of 0.46. G2U G30U G35U C45U gave a self-cleavage of 0.02. Variant G7U C15A G21U C31A has a self-cleavage of 0.03. In the case of A12C U28G C45G, the self-cleavage is reported as 0.03. In the case of G19C A26C G29A C31U U34G C46G, the self-cleavage is reported as 0.03. Variant A4U G17A G21A A24G A39U has a self-cleavage of 0.02. A24C A26C G35A gave a self-cleavage of 0.09. Variant C8A A14G C18A U20G has a self-cleavage of 0.12. In the case of A4G C8G G40C C46U, the self-cleavage is reported as 0.02. With C10A C15U G30U G44A the self-cleavage was 0.04. Work on U20A G27C A39C yielded a self-cleavage of 0.1. G5U A14U A16C A25C C31A gave a self-cleavage of 0. With G7A A11C A14U C18G G22A G27U the self-cleavage was 0.01. For G7A C10U U43G, the self-cleavage was 0.15. In the case of C13G A14U C37A, the self-cleavage is reported as 0.03. G2A C10A G21A G44U gave a self-cleavage of 0.23. In the case of C3A C8U A16U A25G, the self-cleavage is reported as 0.07. C18A G21U A26C C31G G36C showed a self-cleavage of 0.21. With C10U G17C U34G C46A the self-cleavage was 0.01. In the case of G5U G19C A26G, the self-cleavage is reported as 0.04. With G2C A12U G17C the self-cleavage was 0.03. In the case of U9A C10A C15A U43A, the self-cleavage is reported as 0. A11G G36A U38C showed a self-cleavage of 0.01. In the case of G33U U34C G36U, the self-cleavage is reported as 0.06. G27A C37A C42A C46A gave a self-cleavage of 0.02. With C3U G5C C8A U9G C13G G21U the self-cleavage was 0.47. U9A G19U U28G G40U gave a self-cleavage of 0.03. Variant C23G A25G G33C G35U G40U has a self-cleavage of 0.03. Variant C8A G19U G33C C42G has a self-cleavage of 0.23. Variant G30U C37A C46A has a self-cleavage of 0.05. With C10G A11G G35U the self-cleavage was 0.05. G1U A6G C13G G27U G40C gave a self-cleavage of 0.01. In the case of G2U A26G G40A, the self-cleavage is reported as 0.05. For C10A G22A G44C C45U, the self-cleavage was 0.01. Work on G7C C15G G19A G22U G30A C31U yielded a self-cleavage of 0.04. For C31U G35U A41G, the self-cleavage was 0.03. For G21U C31U C42U, the self-cleavage was 0.06. In the case of G5U U9G C10A G17A G27A C46G, the self-cleavage is reported as 0.04. For U9C C15U G22A, the self-cleavage was 0.01. Work on C10G G22U U34A yielded a self-cleavage of 0.02. Variant C3U C23A C37U has a self-cleavage of 0.06. G2A A6C C8U A16G showed a self-cleavage of 0.06. With G7C A12C G33C the self-cleavage was 0.06. For G17U U38C C45G, the self-cleavage was 0.05. G17A C23U G29U gave a self-cleavage of 0.08. With G30A G33A U38C the self-cleavage was 0.07. In the case of G27C G33U U43A, the self-cleavage is reported as 0.19. In the case of A6U A14C C15U C37G A41C C45G C46U, the self-cleavage is reported as 0.04. A16G G17C G33C gave a self-cleavage of 0.01. Work on A16G G44C C45U yielded a self-cleavage of 0.05. G5U G7U A11U gave a self-cleavage of 0.01. For G2C A4G G30U G35U C45G, the self-cleavage was 0.1. Variant G1A A11C C23U G27A has a self-cleavage of 0. With A6U A14G C18U G33A C46U the self-cleavage was 0.01. C8G C31U A39U showed a self-cleavage of 0.07. U20A A39C A41G showed a self-cleavage of 0.03. For G7C G27C C42U, the self-cleavage was 0.02. In the case of C8U U9C C13G G33C, the self-cleavage is reported as 0.01. A16C G19C U20G G40U gave a self-cleavage of 0.04. A4G C8G A11U gave a self-cleavage of 0.01. With C15G C18U G22A U28G A39C the self-cleavage was 0.02. For A24U G33C C42U U43G, the self-cleavage was 0.01. A25U A26U C37U C42U showed a self-cleavage of 0.07. With G5A A14U C18A G33A the self-cleavage was 0.03. In the case of G19U U20A G21A G22A G33A, the self-cleavage is reported as 0.66. For C37A C42U G44A, the self-cleavage was 0.04. Variant C10G G29C C31G has a self-cleavage of 0.02. C3G G22U C42G gave a self-cleavage of 0.1.
